Test results published in PubChem BioAssay AID588855 (National Center for Advancing Translational Sciences (NCATS), 2011).
In all, about 410,000 compounds went through this assay and about 5,000 (1.2%) were called active. The shares of active, inactive and inconclusive entries below differ from those in the screen. The call rests on the fitted dose curve; in most records, active means well fitted inhibition curve with a large enough effect; inconclusive means small, poorly fitted or top-dose-only effect; inactive means no such curve, though single readings can be large or run the other way. Potencies of inconclusive entries are doubtful fits and often do not repeat.
On the % scale 0 is the no-effect control and ±100 the full control effect; potency means the concentration at half of the fitted maximal effect; tags describe the fitted curve by direction and shape.

Assay: qHTS for Inhibitors of TGF-b; further: nearly all actives have a fitted effect of over 65% in size
Details: HepG2 CAGA-GFP TGF-b/SMAD3 reporter, GFP fluorescence, 18 h, TGF-beta stimulated, 500 pg/mL final; series mostly up to 46.1 µM; activity, negative = inhibition: at the top concentration
Outline: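 GFP signal (ex488/em500-530) from TGF-beta-stimulated HEPG2 CAGA-GFP cells, 500 pg/mL final, 18 h at 37 degrees C in DMEM plus 1% FBS, normalized to unstimulated and DMSO-stimulated controls.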
With `CCOc1ccc(NC(=S)NC(=O)Cc2ccccc2)cc1` the “activity, negative = inhibition” value was inactive: -26.2%.
For `O=C(NCc1ccc(Cl)cc1)C1=Cc2cc(Br)ccc2OC1`, the Potency was inconclusive: 35.5 µM [inhibitor, single point].
In the case of `CCOc1ccc(NC(=O)CN2C(=O)C(c3ccc(Cl)cc3)=NC2(C)C)cc1`, the “activity, negative = inhibition” value is reported as inactive: -27.4%.
In the case of `C=C(C)c1cccc(C(C)(C)NC(=O)N2CCN(c3ccccc3)CC2)c1`, the Potency is reported as inconclusive: 6.31 µM [inhibitor, single point].
For `FC(F)(F)COc1nc(N2CCOCC2)nc(N(c2ccccc2)c2ccccc2)n1`, the Potency was inconclusive: 35.5 µM [inhibitor, single point].
For `CCn1c(=O)cc(OCC(=O)N(C)c2ccc(OC)cc2)c2ccccc21`, the “activity, negative = inhibition” value was inactive: -0.705%.
For `CCCNC(=O)c1ccc(C2SCC(=O)N2Cc2ccccc2)cc1` (configuration not stated), the Potency was inconclusive: 35.5 µM [inhibitor, single point].
With `COc1ccc(OC)c(C2Nc3c(C)cc(C)cc3-c3cc(C)nn32)c1` (configuration not stated) the Potency was inconclusive: 35.5 µM [inhibitor, single point].
With `COc1ccc(N2C(=O)CC(NNc3ncc(Cl)cc3Cl)C2=O)cc1` (configuration not stated) the “activity, negative = inhibition” value was inactive: 0%.
In the case of `COc1ccc2c(c1)O[C@@H](c1cccc(C(F)(F)F)c1)[C@H](OC(=O)Nc1ccc(OC(F)F)cc1)C2=O`, the Potency is reported as inconclusive: 35.5 µM [inhibitor, single point].
With `Cc1ccc(NS(=O)(=O)c2ccc3c(c2)CC(=O)N3)cc1Cl` the Potency was inconclusive: 35.5 µM [inhibitor, single point].
In the case of `Cc1c(OCc2nn[nH]n2)ccc2c(-c3ccccc3)cc(=O)oc12`, the Potency is reported as inconclusive: 35.5 µM [inhibitor, single point].
In the case of `COc1ccc(-c2nc3cnccn3c2Nc2ccc(C)cc2)cc1`, the Potency is reported as inconclusive: 17.8 µM [inhibitor, partial curve, poor fit].
With `CC(C)N1C/C(=C/c2cccnc2)C(=O)/C(=C/c2cccnc2)C1` the Potency was active: 7.08 µM.
In the case of `CCN(C(=O)CSc1ncc2c(n1)-c1cc(Cl)ccc1N(Cc1ccccc1)S2(=O)=O)c1cccc(C)c1`, the “activity, negative = inhibition” value is reported as inactive: -7.32%.
For `O=C(c1ccco1)N1CCCC(c2nc3c(nnn3Cc3ccccc3)c(=O)[nH]2)C1` (configuration not stated), the Potency was inconclusive: 5.62 µM [inhibitor, single point].
With `COc1cc(CCc2ccccc2)c(C(=O)O)c(O)c1C/C=C(/C)CCC=C(C)C` the Potency was active: 12.6 µM.
With `COc1ccc(OCCCC(=O)Nc2cccc(SC)c2)cc1` the “activity, negative = inhibition” value was inactive: -8.62%.
With `CC(=O)NCCOc1nc(N(C)C)nc(N2CCOCC2)n1` the “activity, negative = inhibition” value was inactive: 0%.
For `C=CCn1c(=O)c(C(=O)NC(C)c2ccccc2)c(O)c2ccccc21` (configuration not stated), the Potency was inconclusive: 35.5 µM [inhibitor, single point].
In the case of `COc1ccc(/C=N/OCC(=O)NC(c2ccccc2)c2ccccc2)cc1OC`, the Potency is reported as inconclusive: 0.794 µM [inhibitor, full curve].
With `O=C(C1CCC(CNc2c(N3CCCCC3)c(=O)c2=O)CC1)N1CCCCC1` (configuration not stated) the Potency was inconclusive: 35.5 µM [inhibitor, single point].
In the case of `CS(=O)(=O)c1ccc(Sc2nc3ccccc3s2)c([N+](=O)[O-])c1`, the Potency is reported as inconclusive: 35.5 µM [inhibitor, single point].
For `COc1ccccc1N=NC1C(=O)N(C(N)=S)N=C1C` (configuration not stated), the Potency was inconclusive: 35.5 µM [inhibitor, single point].
For `CCOC(=O)c1sc(NC(C)=O)nc1C`, the “activity, negative = inhibition” value was inactive: -3.66%.
For `COC(=O)/C=C\C(=O)Nc1cccc([N+](=O)[O-])c1`, the Potency was inconclusive: 12.6 µM [inhibitor, partial curve].
In the case of `CCOC(=O)c1cc(C)n(CC2CCC(C(=O)Nc3cccc(Cl)c3)CC2)c1C` (configuration not stated), the Potency is reported as inconclusive: 35.5 µM [inhibitor, single point].
In the case of `C/C(=N\N=C1\NC(=O)C(Cc2ccccc2)S1)c1ccccc1` (configuration not stated), the Potency is reported as inconclusive: 12.6 µM [inhibitor, single point].
For `Cc1cc(C)cc(NC(=O)CSc2ccc(-c3ccco3)nn2)c1`, the Potency was inconclusive: 10 µM [inhibitor, partial curve, poor fit].
In the case of `S=C(Nc1ccccc1)N1N=C(c2cccs2)CC1c1cccs1` (configuration not stated), the Potency is reported as inconclusive: 3.55 µM [inhibitor, single point].
For `O=C(Nc1ccc(Br)cc1)c1cccn1-c1ncc(C(F)(F)F)cc1Cl`, the Potency was inconclusive: 17.8 µM [inhibitor, single point].
With `COc1ccc(/C=N/Nc2ncnc3sc4c(c23)CCCC4)cc1O` the Potency was inconclusive: 12.6 µM [inhibitor, partial curve, poor fit].
In the case of `O=C(NCc1ccco1)C(c1cccs1)N(C(=O)C1COc2ccccc2O1)c1cccc(O)c1` (configuration not stated), the Potency is reported as inconclusive: 35.5 µM [inhibitor, single point].
In the case of `COc1ccc(CNC(=O)CN2C(=O)CSc3ccc(S(=O)(=O)N(C)C)cc32)cc1`, the Potency is reported as inconclusive: 2.82 µM [inhibitor, full curve].
With `CCC(C)c1ccccc1N1CC(C(=O)Nc2ccc(C)c(S(=O)(=O)N3CCOCC3)c2)CC1=O` (configuration not stated) the “activity, negative = inhibition” value was inactive: -4.42%.
With `COc1ccc(OC)c(CN2CCN(C(=O)c3cccc(S(=O)(=O)N(C)c4ccccc4)c3)CC2)c1` the Potency was inconclusive: 35.5 µM [inhibitor, single point].
For `CC(C)c1ccccc1NC(=O)COC(=O)Cc1c[nH]c2ccccc12`, the Potency was inconclusive: 5.01 µM [inhibitor, full curve].
In the case of `N#CCCN1CCN(C(=S)c2ccc(-c3cccc(Cl)c3)o2)CC1`, the Potency is reported as inconclusive: 17.8 µM [inhibitor, single point].
In the case of `Cc1cc(NC(=O)CSc2nc(=O)n(CCCN(C)C)c3c2CCCC3)no1`, the Potency is reported as inconclusive: 3.16 µM [inhibitor, single point].
For `NC(=O)c1cc(Br)cc(C2CCCCC2)c1O`, the Potency was inconclusive: 20 µM [inhibitor, single point].
For `COc1cccc(C2c3c(C)nn(-c4ccc([N+](=O)[O-])cc4)c3N=C3C(=O)Nc4ccccc4N32)c1` (configuration not stated), the “activity, negative = inhibition” value was inactive: 0.371%.
In the case of `O=C(NCc1cccnc1)c1ccc(-c2ccc(F)c(F)c2)c2ccoc12`, the “activity, negative = inhibition” value is reported as inactive: -1.46%.
With `COc1ccc(C2=C(C)C(=O)N(Cc3ccc(C(=O)NC(C)c4ccccc4)cc3)S2(=O)=O)cc1` (configuration not stated) the “activity, negative = inhibition” value was inactive: 1.04%.
In the case of `Cc1cc(=O)n2nc(N3CCC(C(=O)Nc4c(C)cccc4C)CC3)sc2n1`, the Potency is reported as inconclusive: 3.55 µM [inhibitor, single point].
For `CCOc1ccc(N2CC(c3nc4ccccc4n3CCCCOc3ccc(OC)cc3)CC2=O)cc1` (configuration not stated), the Potency was inconclusive: 14.1 µM [inhibitor, single point].
With `O=C(NCc1ccco1)c1ccc(Cl)c(S(=O)(=O)N2CCCC2)c1` the “activity, negative = inhibition” value was inactive: -6.86%.
In the case of `CCc1ccccc1Nc1ncnc2ccccc12`, the “activity, negative = inhibition” value is reported as inactive: -5.54%.
In the case of `COc1ccc(/C=N/NC(=O)CCC(=O)Nc2ccccc2)cc1OC`, the “activity, negative = inhibition” value is reported as inactive: -15.7%.
With `COc1ccnc(Oc2ccc3ccccc3c2)c1C#N` the Potency was inconclusive: 35.5 µM [inhibitor, single point].
In the case of `O=C(O)CSc1cc(C(=O)c2ccccc2O)cn2c(=O)c3c(-c4ccccc4)csc3nc12`, the Potency is reported as inconclusive: 14.1 µM [inhibitor, single point].
With `COc1ccc(NC(=O)COc2ccc(N(C)S(=O)(=O)c3ccc(Cl)cc3)cc2)cc1OC` the Potency was inconclusive: 14.1 µM [inhibitor, partial curve, poor fit].
With `Cn1c(=O)n(-c2ccc3c(c2)OCO3)c2nc(-c3ccc(Cl)cc3)nc(C(N)=O)c21` the Potency was inconclusive: 1.26 µM [inhibitor, full curve, poor fit].
In the case of `Cc1cc(C(=O)OCC(=O)Nc2cc(Cl)ccc2C)c(C)o1`, the Potency is reported as inconclusive: 0.112 µM [inhibitor, full curve, poor fit].
In the case of `COc1ccc(Br)cc1Cn1nnc(C(=O)Nc2ccc(C)cc2C)c1N`, the Potency is reported as inconclusive: 15.8 µM [inhibitor, partial curve, poor fit].
With `Nc1nc(NCCCN2CCOCC2)nc(Nc2ccccc2F)c1[N+](=O)[O-]` the “activity, negative = inhibition” value was inactive: 0.671%.
For `CC(C)(C)N(Cc1ccccc1)C(=O)COC(=O)CNC(=O)c1ccco1`, the Potency was inconclusive: 0.631 µM [inhibitor, full curve, poor fit].
In the case of `Cc1cc(C)cc(-n2c(SCC(=O)N3CCCC3)nc3c([nH]c4ccccc43)c2=O)c1`, the “activity, negative = inhibition” value is reported as inactive: 3.91%.
In the case of `Cc1nc(Nc2ccc(Cl)c(Cl)c2)sc1C(=O)Nc1ccccc1`, the Potency is reported as inconclusive: 22.4 µM [inhibitor, single point].
For `CC(C)Oc1ccc(-c2cc(C(=O)NCCN3CCOCC3)c3ccccc3n2)cc1`, the “activity, negative = inhibition” value was inactive: 7.01%.
In the case of `COc1ccc(Cn2nnnc2C(c2ccccn2)N2CCN(c3ccc(O)cc3)CC2)cc1` (configuration not stated), the “activity, negative = inhibition” value is reported as inactive: -16.7%.
In the case of `COCCNC(=O)/C(C#N)=C/c1cccc(OCc2ccccc2)c1`, the Potency is reported as inconclusive: 17.8 µM [inhibitor, single point].
With `Cc1cc(S(=O)(=O)N2CCN(c3ccc(F)cc3)CC2)c(C)s1` the Potency was inconclusive: 35.5 µM [inhibitor, single point].
For `O=C(Nc1cccc2c1CCCC2)c1cc([N+](=O)[O-])ccc1Cl`, the Potency was inconclusive: 22.4 µM [inhibitor, partial curve, poor fit].
In the case of `COc1ccccc1NC(=S)NN=C(C)c1ccccn1`, the Potency is reported as inconclusive: 0.355 µM [inhibitor, partial curve, poor fit].
For `Cc1ccc(C(=O)N[C@@H](C)CN2C3=NC[C@H](C(C)C)N3C[C@H]2Cc2ccc(O)cc2)cc1Br`, the Potency was inconclusive: 35.5 µM [inhibitor, single point].
With `OC(COc1ccc2c(c1)OCO2)CN1CCc2ccccc2C1` (configuration not stated) the Potency was inconclusive: 35.5 µM [inhibitor, single point].
In the case of `O=C(Cc1nc2ccccc2[nH]1)c1cccc([N+](=O)[O-])c1`, the Potency is reported as inconclusive: 10 µM [inhibitor, partial curve, poor fit].
